# Reference: article PMC6919601, “Identification of Plasmodium dipeptidyl aminopeptidase allosteric inhibitors by high throughput screening” (PLoS ONE, 2019)
# Among all 110,000 compounds or so, about 230 (0.21%) showed an effect of 50% or more. The list shows a part of the results.
# Target: DPAP1 (Plasmodium falciparum, UniProt Q8IIJ9)
# Assay: primary screen, percent inhibition; read by cleavage of a fluorogenic dipeptide substrate; higher = more effect of the substance
# Parameters: species or system P. falciparum D10 trophozoite lysates; single well
# 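Further: 30 min substrate incubation versus DMSO and 10 µM JCP410 controls.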
# Sequence of DPAP1 (Q8IIJ9 whole entry, looked up): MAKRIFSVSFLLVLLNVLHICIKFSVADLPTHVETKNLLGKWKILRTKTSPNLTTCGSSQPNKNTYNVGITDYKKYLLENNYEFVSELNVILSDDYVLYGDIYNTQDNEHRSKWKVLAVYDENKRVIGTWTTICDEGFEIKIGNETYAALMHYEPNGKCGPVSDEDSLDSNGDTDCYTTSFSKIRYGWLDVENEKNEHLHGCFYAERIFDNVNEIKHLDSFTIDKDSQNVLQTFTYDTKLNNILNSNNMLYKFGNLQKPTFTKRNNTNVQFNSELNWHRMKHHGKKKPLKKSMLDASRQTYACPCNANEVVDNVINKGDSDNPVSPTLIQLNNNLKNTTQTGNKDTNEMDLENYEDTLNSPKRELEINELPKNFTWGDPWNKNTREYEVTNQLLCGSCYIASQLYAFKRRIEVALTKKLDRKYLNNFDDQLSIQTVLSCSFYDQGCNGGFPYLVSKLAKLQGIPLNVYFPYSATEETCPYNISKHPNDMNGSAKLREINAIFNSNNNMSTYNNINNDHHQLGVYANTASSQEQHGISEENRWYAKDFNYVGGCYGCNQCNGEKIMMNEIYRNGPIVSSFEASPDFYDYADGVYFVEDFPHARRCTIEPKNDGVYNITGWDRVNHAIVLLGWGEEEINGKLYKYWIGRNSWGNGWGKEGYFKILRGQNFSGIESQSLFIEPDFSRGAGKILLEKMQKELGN
row,SMILES,% Inhibition @ 10 uM
1,CCCCN(C)c1ccc(NC(C)=O)cc1,3.91%
2,O=C(CN1CCCC1)N1c2ccccc2C=Cc2ccccc21,-6.06%
3,CCN(CC)CCN(C)C1CCC(c2ccccc2)CC1 (centres unmarked),-2.4%
4,O=C(NCCc1ccccc1)c1ccc2nc(N3CCOCC3)sc2c1,-0.637%
5,Cn1c(C(=O)NCC2CCCO2)cc2oc3ccccc3c21 (centres unmarked),2.8%
6,CC(=O)Nc1cc2nc3ccccc3nc2cc1NC(C)=O,2.59%
7,CC1CCC(NS(=O)(=O)c2ccc3[nH]c4c(c3c2)CCCC4)CC1 (centres unmarked),-2.5%
8,CCOc1cc(C2C3=C(CCCC3=O)N(C)C3=C2C(=O)CCC3)ccc1OC,-3.41%
9,Cc1ccc(C)c(OCC(=O)Nc2sc3c(c2C(N)=O)CCCC3)c1,3.8%
10,CC(=O)Nc1ccc2nc(O)nc(-c3ccccc3)c2c1,4.57%
11,CC(C)CC(C(=O)NCC#N)c1csc(-c2ccc(N3CCOCC3)cc2)n1 (centres unmarked),-1.41%
12,CCOc1ccccc1N1CCN(C2CC(=O)N(c3ccccc3)C2=O)CC1 (centres unmarked),-3.26%
13,O=C(c1ccc(Cl)cc1)N1CCN(C(=O)c2ccc(Cl)cc2)CC1,-0.294%
14,COC(=O)c1cc2c(=O)n3cc(C)ccc3nc2n(CCCn2ccnc2)c1=N,-0.169%
15,COc1ccccc1N1CCN(S(C)(=O)=O)CC1,-2.7%
16,CCn1c(C(=O)N2CCC(C(=O)NCCCN3CCc4ccccc4C3)CC2)cc2sccc21,0.137%
17,COc1ccc(C(=O)Nc2ccccc2C(=O)NC(C(=O)N2CCCCC2)C(C)C)cc1 (centres unmarked),9.14%
18,O=c1sc2ccccc2n1Cc1ccc(F)cc1,-6.12%
19,CC(CNC(=O)C1CCCN(c2ncnc3c2sc2cccc(F)c23)C1)c1ccccc1 (centres unmarked),2.65%
20,COc1ccc(CNC(=O)C(C)Sc2ccc(C)cc2)cc1 (centres unmarked),-4.15%
21,Cc1cc(C)c(-c2c(NC3CCN(Cc4ccccc4)CC3)c(=O)c2=O)cc1C,-8.89%
22,O=C(c1ccco1)C12CN3CN(CN(C3)C1)C2,4.17%

row,SMILES,% Inhibition @ 10 uM
1,O=C(Nc1cccnc1)C1CC1c1ccccc1 (centres unmarked),1.57%
2,O=C(NCCC(c1ccccc1)c1ccccc1)c1cnc2ccccn2c1=O,3.32%
3,N#Cc1cc2c(nc1SCCOC1CCCCO1)CCCC2 (centres unmarked),2.01%
4,CCN1C(=O)N/C(=C/c2cc(C)n(-c3ccc(N(C)C)cc3)c2C)C1=O,-7.34%
5,Cc1ccc(OCCOCCN2CCOCC2)cc1,-2.6%
6,COc1ccc(N(C)C(=O)c2cccc(C(=O)N(C)c3ccc(OC)cc3)c2)cc1,5.05%
7,CC(/C(O)=C(\C#N)c1nc2ccccc2[nH]1)N1C(=O)c2ccccc2C1=O (centres unmarked),-3.78%
8,CCc1ccc(C2CC(=O)N3CN(Cc4ccccc4)CSC3=C2C#N)cc1 (centres unmarked),39.2%
9,CCN(Cc1ccccc1)C(CNS(=O)(=O)c1ccccc1)c1ccccc1 (centres unmarked),1%
10,CSc1ccc(NC(=O)CC(C)=O)cc1,1.48%
11,CCOC(=O)c1nn(-c2ccc(Cl)cc2)c2cc(Cl)c([N+](=O)[O-])cc2c1=O,-0.233%
12,COC(=O)c1sccc1NC(=O)Cn1cnc2c1c(=O)n(C)c(=O)n2C,-3.5%
13,C=CCn1c(CCNC(=O)C2CCCCC2)nc2ccccc21,3.24%
14,O=C(O)c1ccc(CN2CCC(Cc3ccccc3)CC2)cc1,0.708%
15,O=C(c1ccc(CN2CCc3ccccc3C2)cc1)N1CCN(Cc2ccccc2)CC1,-3.63%
16,O=C(O)/C=C\C(=O)Nc1ccc(-c2ccc(Cl)cc2)cc1,4.44%
17,O=C(Nc1cc(Cl)c(Cl)cc1Cl)c1ccccc1Cl,1.91%
18,CCC(C)NC(=O)CCC(=O)n1ncc2c(C)cccc21 (centres unmarked),1.68%
19,CCn1cc(CNC(=O)C(Sc2ccccc2)c2ccccc2)cn1 (centres unmarked),-1.04%
20,Oc1cc(-c2ccc(Cl)cc2)nnc1O,-4.21%
21,CC(C)CC(NS(=O)(=O)c1cccs1)C(=O)O (centres unmarked),-3.23%
22,O=C(CC1(c2ccc(Cl)cc2)C(=O)c2ccccc2C1=O)N1CCCCC1,2%

row,SMILES,% Inhibition @ 10 uM
1,O=C(O)c1ccc2c(c1)C(=O)N(c1ccc(-c3nc4ccccc4[nH]3)cc1)C2=O,2.92%
2,Cc1cccc(/C=C2/NC(=O)N(Cc3ccccc3F)C2=O)c1,-3.04%
3,O=C(Nc1nsc(-c2ccccc2)n1)c1cccs1,-2.75%
4,Cc1nc(O)c(C(=O)/C=C/c2ccccc2)c2c1CCCC2,-2.54%
5,O=C(NCCN1CCOCC1)c1cc(-c2ccccc2)nc2ccccc12,2.08%
6,CCS(=O)(=O)N1CCC2(CC1)OC(=O)C(C)=C2C(=O)N1CCC(N2CCCCC2)CC1,-0.166%
7,CCC(CC)=C(C#N)C(=O)Nc1cccc(C(F)(F)F)c1,-4.6%
8,COCCCNC(=O)c1cc2c(s1)-c1c(C)cccc1OC2,-1.37%
9,Cc1noc2ncnc(N3CCCC(C(=O)O)C3)c12 (centres unmarked),-5.76%
10,CCOc1ccccc1-n1c(CN2CCN(C(=O)c3ccco3)CC2)nc2ccccc2c1=O,3.58%
11,CCN(CC)S(=O)(=O)c1ccc(NC(=O)c2ccccc2Cl)cc1,2.13%
12,COc1cccc(CNC(=O)C2CCCN(S(=O)(=O)N3CCC4(CC3)OCCO4)C2)c1OC (centres unmarked),1.17%
13,Cc1noc2ncnc(N3CCCC(C(=O)NCc4ccccc4Cl)C3)c12 (centres unmarked),-4.32%
14,Cc1cc(NC(=O)C2CCN(C(=O)c3cnn(-c4ccccc4)c3-n3cccc3)CC2)no1,-1.58%
15,O=C(O)C1Cc2ccccc2CN1C(=O)c1ccccc1 (centres unmarked),0.131%
16,CC(C)CC(C(=O)NC1(C#N)CC1)c1cccc(-c2ccc(N3CCN(CCO)CC3)cc2)c1 (centres unmarked),-1.41%
17,O=C(c1ccc(CS(=O)(=O)c2ccc(Br)cc2)o1)N1CCC2(CC1)OCCO2,3.77%
18,CC(C)(C)c1ccccc1OCCCCCCN1CCCCC1,-0.414%
19,CCCN(CCC)C(=O)c1c(C)[nH]c(C(=O)OCC)c1C,4.88%
20,Cc1ccnc(SCC(=O)N2c3ccccc3CCc3ccccc32)n1,-3.39%
21,CC(C)(O)C1=NOC(c2ccccc2)C1 (centres unmarked),-1.47%
